Results on 82 compounds are retold here after ChEMBL document CHEMBL1201862, “PubChem BioAssay data set” (2004).

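1) Cells in 96-well plates. 2) Compound, 48 h, 5 concentrations. 3) Linear interpolation between surrounding doses. 4) Unreached endpoint = highest concentration. Here, GI50 denotes the concentration required for 50% inhibition of growth.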 The source made the active and inactive calls. No stated cut-off is given here; in the data, active = GI50 up to about 1.1 µM and inactive = higher.

For the assay, the system named is NCI-H322M. In words: DTP human tumour cell line panel, 48 h.
Take `OC1CCN2Cc3ccccc3N=C12` (configuration not stated): the GI50 is inactive: > 100 µM. Regarding `c1ccc2sc(SCN(C3CCCCC3)C3CCCCC3)nc2c1`, the GI50 was inactive: > 100 µM. `CCCc1cc(=O)oc2c3c(c4c(c12)OC(C)(C)C=C4)O[C@@H](C)[C@H](C)C3=O`: the GI50 was inactive: 13.8 µM. Turning to `O=C(O)CC(Cc1ccccc1)C(=O)O` (configuration not stated), the GI50 is inactive: > 100 µM.

Take `CN(O)C(=O)CCC(NC(=O)CCC(N)C(=O)O)C(=O)NCC(=O)O` (configuration not stated): the GI50 was inactive: > 100 µM. For the compound `Cc1ccc(NC(=O)CC/C(CC(=O)C(C)(C)C)=N/Nc2nnc(C)n2N)cc1C`, the GI50 was inactive: > 100 µM. Turning to `CC1=NN(C(=O)CC(=O)Nc2ccc(C)cc2)C(=O)C1/N=N/c1ccc(C(=O)O)cc1` (configuration not stated), the GI50 was inactive: > 100 µM. The figure for `O=C(c1ccccc1)c1ccc2nc3n(c2c1)C(c1c(F)cccc1F)SC3` (configuration not stated) is inactive: 7.91 µM. Consider `Cc1ccc2c(c1)CC1(C2)Cc2ccc(C)cc2C1=O` (configuration not stated), for which the GI50 was inactive: 24.3 µM.

`Oc1c(Cl)c(Cl)c(O)c2c1CCCC2`: the GI50 is inactive: 16.7 µM.

Turning to `OCC12C3C4C1C1C2C3C41CO` (configuration not stated), the GI50 was inactive: > 100 µM. For `C=CCC1(O)C(=O)OC2C(O)COC21O` (configuration not stated), the GI50 is inactive: > 100 µM. As for `CC1CC[C@@]2(OC1)OC1C[C@H]3[C@@H]4C/C(=N\N(C)C)[C@@]5(O)CC(O)CC[C@]5(C)[C@H]4CC[C@]3(C)C1[C@@H]2C` (some centres not stated), the GI50 was inactive: 29.8 µM. The result for `O=C(OCc1ccccc1)OOC(=O)OCc1ccccc1` reads inactive: > 100 µM; that for `OCC1OC(n2cnc3c2N=CNC[C@H]3O)C(Cl)C1O` (some centres not stated), inactive: > 100 µM; that for `C=C[C@H]1CN2CCc3c([nH]c4c([C@@H]5CCCN5C)c(O)ccc34)[C@@H]2C[C@@H]1C[C@H]1c2[nH]c3ccccc3c2CCN1C`, inactive: 1.55 µM. On to `O=C(O)C1CCCN1Cc1ccc2c(c1)OCO2` (configuration not stated), for which the GI50 is inactive: > 100 µM. As for `O=C1OC(c2ccccc2)=N/C1=C\c1ccc(F)cc1`, the GI50 is inactive: > 100 µM. The figure for `COc1cc([C@@H]2c3cc4c(cc3[C@@H](OC3OC5COC(C)OC5C(OC(=O)CN5CCN(C)CC5)C3OC(=O)CN3CCN(C)CC3)C3COC(=O)[C@@H]32)OCO4)cc(OC)c1OC(=O)CN1CCN(C)CC1` (some centres not stated) is inactive: > 100 µM; for `Nc1cc(N2CCCC2)nc(=O)n1-c1ccccc1` it is inactive: > 100 µM; for `O=C1C2C(C(=O)N1c1ccccc1)C1(Br)c3ccccc3C2(Br)C2C(=O)N(c3ccccc3)C(=O)C21` (configuration not stated) it is inactive: > 62.2 µM. The result for `CC(C)=CCC[C@@H](C)C1=C(Nc2ccccc2)C(=O)C(C)=C(O)C1=O` reads inactive: 3.37 µM. For the compound `c1ccc(/N=c2/[nH]c3ccccc3s/c2=N/c2ccccc2)cc1`, the GI50 was inactive: > 100 µM. As to `O=C1C2=C(C3=NCCc4c[nH]c1c43)C1(C=C(Br)C(O)C(Br)=C1)CCN2` (configuration not stated), the GI50 is inactive: 2.1 µM. In the case of `CN(C)C(=N)NC(N)=S`, the GI50 was inactive: > 100 µM. On to `CC(C)COC(=O)c1ccc(/N=C\c2ccc(/C=N/c3ccc(C(=O)OCC(C)C)cc3)cc2)cc1`, for which the GI50 was inactive: > 100 µM. In the case of `CCn1cc2c(=O)n3ncn(-c4ccc(Br)cc4)c3nc2n1`, the GI50 was inactive: > 100 µM. The figure for `CCCCCCCCCCCCCCCC(=O)OCC1OC(n2cc(F)c(=O)[nH]c2=O)C(N)C(O)C1O` (configuration not stated) is inactive: 21.6 µM; for `c1ccc(-c2nnc(CCCCCCCCc3nnc(-c4ccccc4)o3)o2)cc1` it is inactive: 72.1 µM. As to `COc1cc(/C=C2\C(=O)N(C(=O)Cc3ccccc3)N=C2C)ccc1O`, the GI50 was inactive: > 100 µM.

Turning to `C/C1=C\CC[C@@]2(C)O[C@@H]2C[C@@H](C2(C)CO2)CC/C(C)=C/CC1` (some centres not stated), the GI50 was inactive: 19.9 µM. As for `C=CCCCCOC1C=CC(O)C(CO)O1` (configuration not stated), the GI50 was inactive: > 100 µM. The result for `C[C@@H]1OC(=O)C[C@H]2CC(=O)N(CCC3CN(S(=O)(=O)C(F)(F)F)c4ccc(Cc5ccc6c(c5)C(CCN5C[C@H]7[C@@H](CC(=O)O[C@H]7C)CC5=O)CN6S(=O)(=O)C(F)(F)F)cc43)C[C@@H]21` (some centres not stated) reads inactive: > 100 µM. The result for `NC(Cc1ccc(N(CCCl)CCCl)cc1)C(=O)NC(CCC(=O)O)C(=O)O` (configuration not stated) reads inactive: > 100 µM; that for `COc1ccccc1C1SCC(=O)N1c1ccc(-n2c(-c3ccccc3)nc3ccccc3c2=O)cc1` (configuration not stated), inactive: 50.4 µM; that for `CC1(C)C(CCO)CC1n1cc(I)c(=O)[nH]c1=O` (configuration not stated), inactive: > 100 µM.

Take `CN(C)CS/C(N)=N\C(O)C(Cl)(Cl)Cl` (configuration not stated): the GI50 is inactive: > 100 µM. On to `C=C1C[C@@H](O)C[C@@]2(C)C[C@@H]3OC(=O)C(=C)[C@@H]3C[C@H]12`, for which the GI50 was inactive: 20.5 µM. Turning to `COc1cc(-c2ccccc2N)c2cccnc2c1OC`, the GI50 was inactive: 7.28 µM. With `CC12CCC(/C(=N/c3cc(C(F)(F)F)cc(C(F)(F)F)c3)C1=O)C2(C)C` (configuration not stated), the GI50 was inactive: 55.3 µM. The figure for `CC(C)(O)[C@H](CCO)O[Si](c1ccccc1)(c1ccccc1)C(C)(C)C` is inactive: 16.3 µM.

As for `CC1C2C=C(O)C(=O)C(C2=O)C1c1ccccc1` (configuration not stated), the GI50 is inactive: > 100 µM.

Consider `Cc1ccccc1-n1c(CCl)nc2ccc(Br)cc2c1=O`, for which the GI50 was inactive: 17 µM.

`OCc1ccc(C2CC(c3ccco3)=NN2c2ccccc2)o1` (configuration not stated): the GI50 was inactive: > 100 µM.

As for `COC(=O)CNC(=O)Nc1cc(N2C(=O)ON3C2C(C)(C)N(O)C3(C)C)ccc1C` (configuration not stated), the GI50 was inactive: > 100 µM. The result for `Nc1nc(O)c([I+]c2ccccc2)c(=O)[nH]1` reads inactive: > 100 µM; that for `FC(F)(F)C1(C(F)(F)F)C2CCC3(CC(F)(F)C(F)(F)S3)C1C2` (configuration not stated), inactive: > 100 µM. Consider `Cc1cc(=O)oc2cc(OCc3nc4ccccc4c(=O)n3-c3ccccc3)ccc12`, for which the GI50 is inactive: > 100 µM. As to `COC(=O)/C=C\C(C#N)(C#N)/N=C/c1ccc(Br)s1`, the GI50 was inactive: 18.2 µM. On to `COc1ccc2c(c1)C(=O)C1CCC(=O)N1C2c1ccc2c(c1)OCO2` (configuration not stated), for which the GI50 is inactive: 19.1 µM. As to `CC(C)(C)c1cc(/C=C/C(=O)CC(=O)/C=C/c2cc(C(C)(C)C)c(O)c(C(C)(C)C)c2)cc(C(C)(C)C)c1O`, the GI50 is inactive: > 50 µM. `COc1ccc(NC(=O)CC2S/C(=N\c3ccccc3C)NC2=O)c([N+](=O)[O-])c1` (configuration not stated): the GI50 was inactive: > 100 µM. For `Cc1cccc(C)c1NC(=O)C(=O)CC(=O)/C=C/c1ccccc1`, the GI50 is inactive: > 100 µM. Regarding `CC(=O)[C@H]1[C@@H](OCc2ccccc2)O[N+]([O-])=C(C)[C@@H]1c1ccccc1`, the GI50 was inactive: > 100 µM. The figure for `O=C(CC(C(=O)c1ccco1)c1cccs1)c1cccs1` (configuration not stated) is inactive: > 100 µM; for `O=C1c2ccccc2C(=O)c2c(NCCCN3CCOCC3)ccc(NCCCN3CCOCC3)c21` it is inactive: 3.72 µM; for `O=S1(=O)OCCOS(=O)(=O)C1(Br)Cc1ccccc1` it is inactive: > 100 µM. `CCOC(=O)Cc1nnc2c(-c3ccccc3)nc3ccccc3n12`: the GI50 was inactive: 16.6 µM. As to `C[N+]1=c2c3cccc4cccc(c(=O)n2CC1)c43`, the GI50 is inactive: 11 µM. Take `C#CCOCC12C=CC(O1)C1COC(=O)C12` (configuration not stated): the GI50 was inactive: > 100 µM. Take `NNc1nnc(-c2ccccc2)nc1Cc1ccccc1`: the GI50 was inactive: 8.05 µM. Take `CC(N)CC(=O)O` (configuration not stated): the GI50 was inactive: 1630 µM. The result for `CC[C@]12C=CCN3CC[C@@]4(c5cc(Br)c(OC)cc5N(C)[C@H]4[C@@](O)(C(=O)NN)[C@@H]1O)[C@@H]32` reads inactive: > 100 µM. The figure for `CC1=CC(=O)N2C(OC[C@@H]2c2ccccc2)O1` (some centres not stated) is inactive: > 100 µM. For the compound `CC(=O)CCCCn1c(=O)c2c(nc(Br)n2C)n(C)c1=O`, the GI50 is inactive: > 100 µM.

Take `CN(C)NC(=O)/C(=C/c1ccc(Cl)cc1)NC(=O)c1ccccc1`: the GI50 was inactive: > 100 µM. On to `Cc1cc(C)nc(Nc2nc3cc([N+](=O)[O-])ccc3[nH]2)n1`, for which the GI50 was inactive: > 100 µM.

For `COC(=O)C(=O)C1(CCC(C)=O)c2ccccc2-c2c(C)ccc(C)c21` (configuration not stated), the GI50 was inactive: 68.1 µM.

Regarding `O=S1(=O)c2ccccc2N=C(c2ccccc2Cl)CC1c1ccc(F)cc1` (configuration not stated), the GI50 was inactive: 16.7 µM. The result for `C#CCOC(=O)C(N)CS` (configuration not stated) reads inactive: > 100 µM. Take `COc1ccc(/C=C/CO)cc1OC`: the GI50 is inactive: > 100 µM. In the case of `CCc1cccc(C)c1NC(=O)CCc1nnc(SC)o1`, the GI50 is inactive: > 100 µM. As to `O=C1C2=C(c3ccccc31)C(c1ccccc1)N1C(=O)CSC1=N2` (configuration not stated), the GI50 is inactive: > 68.9 µM. For `Cc1ccc(S(=O)(=O)Nn2c(S)c(C#N)c(-c3ccc([N+](=O)[O-])cc3)c(C#N)c2=O)cc1`, the GI50 was inactive: 56.5 µM. Turning to `NC1=CN(CCCO)C2=N/C(=C\c3ccccc3)C(=O)N12`, the GI50 was inactive: > 100 µM. As to `O=C1OCc2cccc3c2-c2c1cccc2C(=O)OC3`, the GI50 is inactive: > 100 µM.

For the compound `Nc1cc(S(=O)(=O)O)cc2cc(S(=O)(=O)O)c(/N=N/c3ccc(-c4ccc(/N=N/c5c(S(=O)(=O)O)cc6cc(S(=O)(=O)O)cc(N)c6c5O)cc4)cc3)c(O)c12`, the GI50 was inactive: > 100 µM. With `CCOC(=O)Oc1cc2c(c(OC)c1OC)-c1ccc(SC)c(=O)cc1C(NC(=O)C(F)(F)F)CC2` (configuration not stated), the 50% growth inhibitory concentration (GI50) was active: 0.1 µM. Turning to `COc1cccc2c1C(=O)c1c(O)c3c(c(O)c1C2=O)C[C@@](O)(C(C)=O)CC3OC1CC(OC2CC(N)C(O)C(C)O2)C(O)C(C)O1` (some centres not stated), the GI50 was inactive: 77.1 µM. Regarding `Nc1ccc(-c2nc3cc(F)ccc3s2)cc1`, the GI50 was inactive: 4.56 µM. The figure for `Nc1ccn([C@H]2CO[C@@H](CO)O2)c(=O)n1` is inactive: > 100 µM; for `Cc1cnc2[nH]c(-c3cccc(F)c3)cc(=O)c2c1` it is active: 0.0502 µM.
